# The list shows a part of the results.
# Tested on: PfAP2-HC AP2 domain (GST-tagged)
# Test: gcPBM binding intensity (ln(normalized median fluorescence intensity)); higher = stronger DNA binding
# Procedure, shortened: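 Each value is the highest Masliner-normalised natural-log median intensity across replicate spots of either orientation of a probe. The probes were primer-extended double-stranded 36-bp intergenic genomic sequences on an Agilent 4 × 180k array, alongside negative controls, exposed for 1 h to GST-tagged P. falciparum DNA-binding domains expressed in E. coli. Bound protein was picked up with Alexa488 anti-GST antibody and scanned at 488 nm.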
row,Sequence,gcPBM binding intensity (ln)
1,TGCTACTTATAAATAGAACACACATAAGTGTATTTG [CACACA_site9253],9.71
2,AAGAAAAAAAAAAAAAAAAAAAAAAAAAAGGAAAAA [GTGCAC_negctrl_site174],9.29
3,AAAAAAAAAAAAAAAAAAAAAAAAAAATATATATAT [CACACA_negctrl_site271],9.48
4,TAAGAAAAAAAATAATGTACATATGTATTTGAGAAA [XGTACX_site3569],9.67
5,TATATATATATATATTGTACTAATTGTGCAAATGAG [XGTACX_site682],9.63
6,ATAAAGCCATACAATACACACATTTGACATGTCCGT [CACACA_site7523],9.81
7,ATACTTCAATCTATTTGTACATATTTTTTAAAACCA [XGTACX_site2328],9.51
8,GAAATTTTTAAATACAGTACACACATGGGTTTAAAT [XGTACX_site6124],9.93
9,AATAATAAAAAATATACACACATATATAAATAAATA [CACACA_site6164],9.95
10,ATAAATCAAAGGCACACACACAAAAAAAAAAAAAAA [CACACA_site160],10.4
11,TGTTTTTTATATTACTGTACATGTTTTGGAATAATA [XGTACX_site4716],9.61
12,GCGGGTTTATCTTTCGCACACCTTACATTTTAGAAT [CACACA_site2015],9.93
13,AGTTTTATGTAGTGTTGTACTTTATACAAATATATT [XGTACX_site614],9.9
14,ATATCACATTCCACGGTACACACTAAAAGAAAAATC [CACACA_site3611],9.92
15,TATTTTTGTATATATTTATTCTTATTTTACAGGAAA [TGCATGCA_negctrl_site472],9.38
16,AACAAAAATAGAAACACACATACATTGGTTTTCTTT [CACACA_site2534],9.84
17,ACATTTAAGTTTAGCTGTACATATTCATCATAATTA [XGTACX_site37],9.6
18,TATTCCTTCTACAATTAAATAATTATAATAAATATA [GTGCAC_negctrl_site26],9.15
19,GTATCATTAAATTATTGTACATATATATATATATAT [XGTACX_site8809],9.84
20,TTAATTAATAGACACACACACATATAAATATAGATT [CACACA_site7143],10.2
21,AAAAAAAAATAATATTGTACACACATAAATTCTTTG [XGTACX_site4315],9.78
22,GTGTATTTTCTGCGCACACACATGCAAAAAGAAATA [CACACA_site1148],10.1

row,Sequence,gcPBM binding intensity (ln)
1,GTTTTATTAAAAATGTGTACTTAATTATGAAAAAAA [XGTACX_site4689],9.34
2,TATATTTACATTGTAACACACATGAAATATATATAT [CACACA_site61],9.79
3,TGTTGTAAATATGTTTGTACATAAATATATTATTTA [XGTACX_site5442],9.67
4,TATTGTTTTGATTGATGTACATGTTTAAAATATATA [XGTACX_site8430],9.6
5,TAATCTATTTATATGTGTACCTATTTAGAAATGACA [XGTACX_site5709],9.39
6,AAAGTAAATTTAAGCACACACAACGAACTTTTATAC [CACACA_site7008],10.3
7,AAGAAAAAATATAATAATAATAAAATATATATAATA [TGCATGCA_negctrl_site475],9.69
8,TTTGTTTTTCATAGTGCACACATAACCAAAAATAGT [CACACA_site9030],9.72
9,CAAATACATAGACACACACACATATACATATTTATA [CACACA_site7610],10.4
10,TTTATATTTAAATGCATGCACTTTCTATTTTTTTTT [GTGCAC_site9959],9.99
11,TATTTGATAAATTATACACACACAATATATATAAAA [CACACA_site8625],10.1
12,GAATAAAGGAGAGGCACACATATATATATATATATA [CACACA_site2452],9.75
13,GAGGATCATCAATTCACACACATAAAAATGAAGTTA [CACACA_site3078],9.76
14,TTCTTTTTAATGTCGGTGCAACTCCATAAAAACAAA [GTGCAC_site9488],9.33
15,CAATTTTCTAATGAAACATGCAAAATAAAATTTTAT [TGCATGCA_site13],9.33
16,CAACGATACAAAAAAGGTACACATATATATATATAT [XGTACX_site8688],9.78
17,TATATAAAATTCTATTGTACATGTTATACGAAAGAA [XGTACX_site5711],9.63
18,TTAATATAATTAAAATGTACTTATTTGTAAACATTA [XGTACX_site6313],9.39
19,TTTGTAGCACTTAAGAGTACAAAATGTATAAGATTT [XGTACX_site2321],9.55
20,GACCATGTTAACAAAGCATGCATCTCTATATGTTTA [TGCATGCA_site358],9.68
21,ACATAAAATAAATATACACACATATGTATATATCAT [CACACA_site7424],9.9
22,TTATTTTATAAATCGAAAACAAACAAAAAAAAGATA [XGTACX_negctrl_site178],9.63
